Laboratory results: US20240254223A1 (NOVIMMUNE, published 2024)

Assays:
[1] = molecular target: T1, CD47 at the surface of Peak cells (human, UniProt Q08722); experiment: flow cytometry, Peak cells, before cleavage
T1 construct: whole, on cells; also called cell surface CD47
Protocol: (§1) Binding activity of antibody-cytokine/receptor fusions before and after cleavage was also evaluated by flow cytometry. Peak cells derived from HEK 293 which are human cells expressing CD47 were used to evaluate masking efficacy and binding recovery to CD47 by flow cytometry. Peak cells were diluted in cold FACS buffer (PBS, 2% BSA) to 1.2×10⁶ cells/mL. 3×10⁵ cells/well were added in a 96 well V-bottom plate. The plate was then centrifugated for 5 min at 1300 rpm, 4° C. Supernatants were removed and cells were washed twice using FACS buffer. A serial dilution of antibody-cytokine/receptor fusions previously digested with MMP-9 or not digested as described above was prepared in FACS buffer. An irrelevant antibody was included. Then, 150 μL of each diluted antibody were added in corresponding well and incubated for 30 min at 4° C. Cells were washed twice with FACS buffer and 100 μL of a mouse anti human Fc-PE conjugated secondary antibody were added and the plate was incubated for 20 min at 4° C. Cells were then washed twice with FACS buffer. Finally, 150 μL of SYTOX blue dead cell stain (ThermoFisher) diluted to 1/5000 in FACS buffer were added before detection by flow cytometry with Cytoflex (Beckman Coulter). Acquisition was performed with 10000 events for each well. Data were analyzed by FlowJo software.

[2] = molecular target: T2, high affinity trimeric IL-2R (IL-2Rα, IL-2Rβ and IL-2Rγ) on HEK-Blue IL-2 cells (UniProt P01589 22-272; P14784 27-551; P31785 23-369); experiment: cell-based or functional assay
T2 sequence (looked up) 1: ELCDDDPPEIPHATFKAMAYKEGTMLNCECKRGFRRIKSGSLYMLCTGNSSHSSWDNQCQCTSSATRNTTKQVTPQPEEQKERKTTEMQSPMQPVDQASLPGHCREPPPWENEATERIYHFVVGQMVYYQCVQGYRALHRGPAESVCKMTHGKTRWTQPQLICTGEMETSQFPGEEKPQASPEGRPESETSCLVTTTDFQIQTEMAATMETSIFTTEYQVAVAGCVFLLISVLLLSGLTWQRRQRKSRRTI
T2 sequence (looked up) 2: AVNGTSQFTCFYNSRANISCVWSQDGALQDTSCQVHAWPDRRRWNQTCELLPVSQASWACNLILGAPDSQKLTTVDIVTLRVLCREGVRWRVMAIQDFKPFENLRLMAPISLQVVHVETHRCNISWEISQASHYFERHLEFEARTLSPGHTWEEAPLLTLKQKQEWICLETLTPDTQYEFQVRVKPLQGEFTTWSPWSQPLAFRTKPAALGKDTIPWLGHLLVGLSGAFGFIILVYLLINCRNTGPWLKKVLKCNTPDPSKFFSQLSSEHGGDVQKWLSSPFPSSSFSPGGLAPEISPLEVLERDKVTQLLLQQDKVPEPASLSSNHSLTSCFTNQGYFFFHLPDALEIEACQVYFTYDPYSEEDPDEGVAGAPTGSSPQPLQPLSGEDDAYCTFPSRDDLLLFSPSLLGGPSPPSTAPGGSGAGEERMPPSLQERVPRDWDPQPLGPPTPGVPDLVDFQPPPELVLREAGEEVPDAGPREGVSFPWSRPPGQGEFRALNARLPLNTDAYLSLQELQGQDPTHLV
T2 sequence (looked up) 3: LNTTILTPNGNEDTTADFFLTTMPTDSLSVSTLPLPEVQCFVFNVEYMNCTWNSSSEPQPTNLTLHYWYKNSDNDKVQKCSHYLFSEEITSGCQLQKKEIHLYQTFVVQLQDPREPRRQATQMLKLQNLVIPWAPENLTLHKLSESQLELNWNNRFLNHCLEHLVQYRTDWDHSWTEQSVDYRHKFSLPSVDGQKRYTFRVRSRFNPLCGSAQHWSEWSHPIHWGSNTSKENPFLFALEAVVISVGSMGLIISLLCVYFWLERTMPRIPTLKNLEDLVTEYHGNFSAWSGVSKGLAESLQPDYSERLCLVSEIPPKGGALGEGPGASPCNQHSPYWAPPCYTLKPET

[3] = molecular target: T1, CD47 at the surface of Peak cells; experiment: flow cytometry, Peak cells; EC50 before / EC50 after cleavage
Protocol: as §1

[4] = molecular target: T3, His-tagged human CD47 (human, UniProt Q08722 part only, limits assumed); experiment: BLI, His-CD47 on HIS1K sensor, antibody 15 µg/mL
T3 construct: loaded on HIS1K biosensors at 2.5 µg/mL; also called target antigen; not shown: His tag
Protocol: The capacity of the masking domains to inhibit binding activity of the antibody was evaluated by Bio-Layer Interferometry (BLI). […] Binding experiments were performed to evaluate the masking efficiency and the binding recovery after cleavage of the masking domains. BLI was performed on an Octet RED96 system (Sartorius). His-tagged human CD47 was diluted at 2.5 μg/mL in Kinetic Buffer (KB) (Sartorius) and loaded on HIS1K biosensors (anti-His tag antibody biosensors, Sartorius) for 300 seconds. Loaded biosensors were dipped into antibodies diluted at 15 μg/mL in KB for 300 seconds to monitor association. Then, biosensors were transferred in KB for dissociation for 60 seconds. Binding profiles were then analyzed with ForteBio Data Analysis software.

B1: pNOVI V2K K91_C_IL-2_1_153_CM1 VKCK IL-2Rα_1_185_CM1_IL-2Rβ_27_239_CM1 VHCH (antibody, human IgG1, kappa)
light: [about 150 residues left out]GGGGSVHMPLGFLGPGGSDIQMTQSPSSLSASVGDRVTITCNVDQVIANWLNWYQQKPGKAPKLLIYAASSLQSGVPSRFSGSGSGTDFTLTISSLQPEDFATYYCQQMHPRAPKQFGQGTKVEIKRTVAAPSVFIFPPSDEQLKSGTASVVCLLNNFYPREAKVQWKVDNALQSGNSQESVTEQDSKDSTYSLSSTLTLSKADYEKHKVYACEVTHQGLSSPVTKSFNRGEC
heavy: ELCDDDPPEIPHATFKAMAYKEGTMLNCECKRGFRRIKSGSLYMLCTGNSSHSSWDNQCQCTSSATRNTTKQVTPQPEEQKERKTTEMQSPMQPVDQASLPGHCREPPPWENEATERIYHFVVGQMVYYQCVQGYRALHRGPAESVCKMTHGKTRWTQPQLICTGGGGSVHMPLGFLGPGGSAVNGTSQFTCFYNSRANISCVWSQDGALQDTSCQVHAWPDRRRWNQTCELLPVSQASWACNLILGAPDSQKLTTVDIVTLRVLCREGVRWRVMAIQDFKPFENLRLMAPISLQVVHVETHRCNISWEISQASHYFERHLEFEARTLSPGHTWEEAPLLTLKQKQEWICLETLTPDTQYEFQVRVKPLQGEFTTWSPWSQPLAFRTKPAALGKDGGGGSVHMPLGFLGPGGS[about 120 residues left out][about 100 residues left out][human IgG1 Fc left out]
notes: masked K91 fusion, uncleaved; also called n490; construct No 490
With B1 the EC50 [1] was 13.4 nM, the “EC50 before cleavage IL-2, HEK Blue IL-2 αβγ reporter assay” value [2] was 0.16 nM and the “EC50 ratio (BC/AC), HEK Blue IL-2 αβγ reporter assay” value (“EC50 ratio (BC/AC)” for short) [2] was 12. The “Binding recovery (BC/AC)” value [3] was 27 and the “Binding before cleavage (BLI)” value [4] was 0.7 nm.

B2: pNOVI V2K K91_D1_IL-2_1_153_CM1_IL-2Rβ_27_239_CM1 VKCK IL-2Rα_1_238_CM1_VHCH (antibody, human IgG1, kappa)
light: [about 150 residues left out]GGGGSVHMPLGFLGPGGGGSAVNGTSQFTCFYNSRANISCVWSQDGALQDTSCQVHAWPDRRRWNQTCELLPVSQASWACNLILGAPDSQKLTTVDIVTLRVLCREGVRWRVMAIQDFKPFENLRLMAPISLQVVHVETHRCNISWEISQASHYFERHLEFEARTLSPGHTWEEAPLLTLKQKQEWICLETLTPDTQYEFQVRVKPLQGEFTTWSPWSQPLAFRTKPAALGKDGGGGSVHMPLGFLGPGGSDIQMTQSPSSLSASVGDRVTITCNVDQVIANWLNWYQQKPGKAPKLLIYAASSLQSGVPSRFSGSGSGTDFTLTISSLQPEDFATYYCQQMHPRAPKQFGQGTKVEIKRTVAAPSVFIFPPSDEQLKSGTASVVCLLNNFYPREAKVQWKVDNALQSGNSQESVTEQDSKDSTYSLSSTLTLSKADYEKHKVYACEVTHQGLSSPVTKSFNRGEC
heavy: ELCDDDPPEIPHATFKAMAYKEGTMLNCECKRGFRRIKSGSLYMLCTGNSSHSSWDNQCQCTSSATRNTTKQVTPQPEEQKERKTTEMQSPMQPVDQASLPGHCREPPPWENEATERIYHFVVGQMVYYQCVQGYRALHRGPAESVCKMTHGKTRWTQPQLICTGEMETSQFPGEEKPQASPEGRPESETSCLVTTTDFQIQTEMAATMETSIFTTEGGGGSVHMPLGFLGPGGS[about 120 residues left out][about 100 residues left out][human IgG1 Fc left out]
notes: masked K91 fusion, uncleaved; also called n500; construct No 500
For B2, the EC50 [1] was 17.5 nM, the “EC50 before cleavage IL-2, HEK Blue IL-2 αβγ reporter assay” value [2] was 0.14 nM and the “EC50 ratio (BC/AC)” value [2] was 10. For the same binder, the “Binding recovery (BC/AC)” value [3] was 21 and the “Binding before cleavage (BLI)” value [4] was 0.7 nm.

B3: pNOVI V2K K91_Q1_IL-2 Q126T CM1_VKCK_IL-2Rα_CM1_VHCH (antibody, human IgG1, kappa)
light: [about 150 residues with changes left out]GGGGSVHMPLGFLGPGGSDIQMTQSPSSLSASVGDRVTITCNVDQVIANWLNWYQQKPGKAPKLLIYAASSLQSGVPSRFSGSGSGTDFTLTISSLQPEDFATYYCQQMHPRAPKQFGQGTKVEIKRTVAAPSVFIFPPSDEQLKSGTASVVCLLNNFYPREAKVQWKVDNALQSGNSQESVTEQDSKDSTYSLSSTLTLSKADYEKHKVYACEVTHQGLSSPVTKSFNRGEC
heavy: ELCDDDPPEIPHATFKAMAYKEGTMLNCECKRGFRRIKSGSLYMLCTGNSSHSSWDNQCQCTSSATRNTTKQVTPQPEEQKERKTTEMQSPMQPVDQASLPGHCREPPPWENEATERIYHFVVGQMVYYQCVQGYRALHRGPAESVCKMTHGKTRWTQPQLICTGEMETSQFPGEEKPQASPEGRPESETSCLVTTTDFQIQTEMAATMETSIFTTEGGGGSVHMPLGFLGPGGS[about 120 residues left out][about 100 residues left out][human IgG1 Fc left out]
notes: masked K91 fusion with IL-2 Q126T, uncleaved; also called n1030; construct No 1030
B3 was tested, and the EC50 [1] was 6.3 nM, the “EC50 before cleavage IL-2, HEK Blue IL-2 αβγ reporter assay” value [2] was 0.89 nM and the “EC50 ratio (BC/AC)” value [2] was 4. For the same binder, the “Binding recovery (BC/AC)” value [3] was 17 and the “Binding before cleavage (BLI)” value [4] was 0.7 nm.

B4: pNOVI V2K K91_IL-2_CM1_VKCK_IL-2Rα WO LIN_VHCH (antibody, human IgG1, kappa)
light: [about 150 residues left out]GGGGSVHMPLGFLGPGGSDIQMTQSPSSLSASVGDRVTITCNVDQVIANWLNWYQQKPGKAPKLLIYAASSLQSGVPSRFSGSGSGTDFTLTISSLQPEDFATYYCQQMHPRAPKQFGQGTKVEIKRTVAAPSVFIFPPSDEQLKSGTASVVCLLNNFYPREAKVQWKVDNALQSGNSQESVTEQDSKDSTYSLSSTLTLSKADYEKHKVYACEVTHQGLSSPVTKSFNRGEC
heavy: ELCDDDPPEIPHATFKAMAYKEGTMLNCECKRGFRRIKSGSLYMLCTGNSSHSSWDNQCQCTSSATRNTTKQVTPQPEEQKERKTTEMQSPMQPVDQASLPGHCREPPPWENEATERIYHFVVGQMVYYQCVQGYRALHRGPAESVCKMTHGKTRWTQPQLICTGEMETSQFPGEEKPQASPEGRPESETSCLVTTTDFQIQTEMAATMETSIFTTE[about 120 residues left out][about 100 residues left out][human IgG1 Fc left out]
notes: masked K91 fusion, uncleaved; IL-2Rα joined to VHCH without linker; also called n281; construct No 281
In the case of B4, the EC50 [1] is reported as 8.5 nM, the “EC50 before cleavage IL-2, HEK Blue IL-2 αβγ reporter assay” value [2] is reported as 0.06 nM and the “EC50 ratio (BC/AC)” value [2] is reported as 4. The “Binding recovery (BC/AC)” value [3] was 9 and the “Binding before cleavage (BLI)” value [4] was 1 nm.

B5: pNOVI V2K K91_J3_IL-2Rα_1_238_IL-2_21_153_CM1 VKCK_IL-2Rα_1_238_IL-2_21_153_CM1 VHCH (antibody, human IgG1, kappa)
light: ELCDDDPPEIPHATFKAMAYKEGTMLNCECKRGFRRIKSGSLYMLCTGNSSHSSWDNQCQCTSSATRNTTKQVTPQPEEQKERKTTEMQSPMQPVDQASLPGHCREPPPWENEATERIYHFVVGQMVYYQCVQGYRALHRGPAESVCKMTHGKTRWTQPQLICTGEMETSQFPGEEKPQASPEGRPESETSCLVTTTDFQIQTEMAATMETSIFTTEGGGGSGGGGS[about 150 residues left out]GGGGSVHMPLGFLGPGGSDIQMTQSPSSLSASVGDRVTITCNVDQVIANWLNWYQQKPGKAPKLLIYAASSLQSGVPSRFSGSGSGTDFTLTISSLQPEDFATYYCQQMHPRAPKQFGQGTKVEIKRTVAAPSVFIFPPSDEQLKSGTASVVCLLNNFYPREAKVQWKVDNALQSGNSQESVTEQDSKDSTYSLSSTLTLSKADYEKHKVYACEVTHQGLSSPVTKSFNRGEC
heavy: ELCDDDPPEIPHATFKAMAYKEGTMLNCECKRGFRRIKSGSLYMLCTGNSSHSSWDNQCQCTSSATRNTTKQVTPQPEEQKERKTTEMQSPMQPVDQASLPGHCREPPPWENEATERIYHFVVGQMVYYQCVQGYRALHRGPAESVCKMTHGKTRWTQPQLICTGEMETSQFPGEEKPQASPEGRPESETSCLVTTTDFQIQTEMAATMETSIFTTEGGGGSGGGGS[about 150 residues left out]GGGGSVHMPLGFLGPGGS[about 120 residues left out][about 100 residues left out][human IgG1 Fc left out]
notes: masked K91 fusion, uncleaved; also called n1051; construct No 1051
With B5 the EC50 [1] was 29.9 nM, the “EC50 before cleavage IL-2, HEK Blue IL-2 αβγ reporter assay” value [2] was 0.28 nM and the “EC50 ratio (BC/AC)” value [2] was 9. For the same binder, the “Binding recovery (BC/AC)” value [3] was 80 and the “Binding before cleavage (BLI)” value [4] was 0.1 nm.
